Laboratory results published in PubChem BioAssay (NCATS).
Values joined by “and” are separate entries in the source; they are usually repeats but may differ in a detail not shown here. Equal entries are not always repeated. Inconclusive results, whose numbers are uncertain, are shown with a selection of clear calls. Potencies beside an inconclusive call are fits to weak or partial responses and may not hold up. Active and inactive are the calls of the source. Calls come from the whole dose curve; as a rule, active = well fitted cell-killing curve with a large enough effect; inconclusive = small, poorly fitted or top-dose-only effect, or effect the other way; inactive = no such curve, though single readings can be large or run the other way.

Columns and labels:
[1] = Viability qHTS for spleen associated tyrosine kinase inhibitor (SYKi) naive MV4-11 cells (AID 1963823); settings: MV4-11 AML viability, CellTiter-Glo luminescence, 72 h; viability (% of control): at 45 µM (top of the series); note: nearly all actives have a fitted effect of over 40% in size
How it was run: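 SYKi-naive MV4-11 AML cells, 500 per well, were exposed to library compounds for 72 hr at 37 C, 5% CO2. Viability was then read by CellTiter-Glo luminescence after 10 min at room temperature.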

[2] = Viability qHTS for spleen associated tyrosine kinase inhibitor (SYKi) drug resistant MV4-11 cells (AID 1963824); settings: SYKi-resistant MV4-11 viability, CellTiter-Glo, 72 h; series mostly up to 45 µM; note: nearly all actives have a fitted effect of over 35% in size
How it was run: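 SYK-inhibitor-resistant MV4-11 AML cells were seeded at 500 per well onto compound and cultured 72 hours (37 °C, 5% CO2). CellTiter-Glo was then added, and after 10 min at room temperature, luminescence gave viability.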
Potency is the fitted concentration of half-maximal effect; tags give direction and shape of the fitted curve.

## CCC(=O)N1CCOc2c(cc(-c3cc(OC)cc(OC)c3)cc2C(=O)N[C@H]2CCCN(C)C2)C1
[1]
  Potency: active: 16.6 µM
[2]
  Potency: active: 9.34 µM

## N[C@H](Cc1c[nH]c2ccccc12)C(=O)O
[1]
  Potency: inconclusive: 18.8 µM [cytotoxic, partial curve]
[2]
  Potency: inconclusive: 5.31 µM [cytotoxic, partial curve, poor fit]

## COc1ccc(C2OCC3C(c4cc(OC)c5c(c4)OCO5)OCC23)cc1OC (centres undefined)
[1]
  Potency: inconclusive: 14.2 µM [cytotoxic, single point]
[2]
  Potency: active: 8.93 µM

## CCCOc1ccn2c(C(C)=O)cc(-c3ccccc3S(C)(=O)=O)c2c1
[1]
  Potency: inconclusive: 14.6 µM [cytotoxic, partial curve] and active: 20.9 µM
[2]
  Potency: inconclusive: 9.2 µM [cytotoxic, partial curve] and active: 14.8 µM

## CCc1c[nH]c2ncnc(N3CC[C@](N)(CNC(=O)c4ccc(F)cc4F)C3)c12
[1]
  Potency: inconclusive: 7.31 µM [cytotoxic, partial curve]
[2]
  Potency: inconclusive: 10.3 µM [cytotoxic, partial curve]

## O=C1C(c2[nH]c3ccccc3c2O)=Nc2ccccc21
[1]
  Potency: inactive
[2]
  Potency: inconclusive: 16.8 µM [cytotoxic, single point]

## COc1ccc(C#Cc2ccc(C(=O)N3CCC[C@@H](O)C3)c(F)c2)cc1
[1]
  Potency: inconclusive: 7.31 µM [cytotoxic, partial curve]
[2]
  Potency: inconclusive: 5.17 µM [cytotoxic, partial curve]

## COc1cc(OC)cc(C(=O)Nc2ccc(Cl)c(-c3nc4ccc(N(C)C)cc4[nH]3)c2)c1
[1]
  Potency: inconclusive: 8.2 µM [cytotoxic, partial curve]
[2]
  Potency: inconclusive: 16.4 µM [cytotoxic, partial curve]

## CC(=O)OC(C)(C)/C=C/C(=O)[C@](C)(O)C1[C@H](O)C[C@@]2(C)[C@@H]3CC=C4[C@@H](C[C@H](O[C@@H]5O[C@H](CO)[C@@H](O)[C@H](O)[C@H]5O)C(=O)C4(C)C)[C@]3(C)C(=O)C[C@]12C (some centres undefined)
[1]
  Potency: inconclusive: 6.11 µM [cytotoxic, partial curve]
[2]
  Potency: inconclusive: 6.11 µM [cytotoxic, partial curve]

## C[C@@H]1O[C@@H](O[C@H]2[C@H](O[C@H]3CO[C@@H](O[C@H]4CC[C@@]5(C)C(CC[C@]6(C)C5CC[C@]57OC[C@@]8(CC[C@](C)(CO)CC85)[C@H](O)C[C@]76C)C4(C)C)[C@H](O[C@@H]4O[C@H](CO)[C@@H](O)[C@H](O)[C@H]4O)[C@H]3O)O[C@H](CO)[C@@H](O)[C@@H]2O)[C@H](O)[C@H](O)[C@H]1O (some centres undefined)
[1]
  Potency: inconclusive: 0.0011 µM [rising, full curve, poor fit]
[2]
  viability, % of control: inactive: 95% [at 9.25 µM]

## C=C1C(=O)O[C@@H]2C[C@H](C)[C@@H]3CC(=O)C(C)=C3C[C@H]12
[1]
  Potency: inconclusive: 2.31 µM [cytotoxic, full curve]
[2]
  Potency: active: 1.16 µM

## COc1cc(Nc2ccc([N+](=O)[O-])cc2C(=O)O)cc2ccccc12
[1]
  Potency: inactive
[2]
  Potency: inconclusive: 25.9 µM [cytotoxic, single point]

## CC[C@H]1OC(=O)[C@H](C)[C@@H](OC2C[C@@](C)(OC)[C@@H](O)[C@H](C)O2)[C@H](C)[C@@H](OC2O[C@H](C)C[C@H](NC)[C@H]2O)[C@](C)(O)C[C@@H](C)CN(C)[C@H](C)[C@@H](O)[C@]1(C)O (some centres undefined)
[1]
  Potency: inconclusive: 18.4 µM [cytotoxic, partial curve, poor fit]
[2]
  Potency: inconclusive: 14.6 µM [cytotoxic, partial curve, poor fit]

## C[C@@H]1N=C(N)NC(N(C)C)=N1
[1]
  Potency: inactive
[2]
  Potency: inactive

## COc1ccc(/C=N/NC(=O)c2ccncc2)cc1OC
[1]
  Potency: inconclusive: 0.003 µM [rising, full curve, poor fit]
[2]
  Potency: inactive

## N[C@@H](Cn1ccc(=O)c(O)c1)C(=O)O
[1]
  viability (% of control): inactive: 88% [at 4.97 µM]
[2]
  viability, % of control: inactive: 98% [at 4.97 µM]

## CC1(C)CCCC2(C)C(CO)C(CO)=CCC12 (centres undefined)
[1]
  Potency: inconclusive: 29.1 µM [cytotoxic, single point]
[2]
  Potency: inconclusive: 18.4 µM [cytotoxic, partial curve, poor fit]
